This is one part of the list.

This test deals with PfAP2-HC AP2 domain (GST-tagged). The experiment in a line: gcPBM binding intensity (ln(normalized median fluorescence intensity)); higher = stronger DNA binding. In a few lines: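 GST-fused DNA-binding domains of P. falciparum, expressed in E. coli, were applied at about 25 μg on average for 1 h to an Agilent 4 × 180k array of primer-extended double-stranded 36-bp intergenic genomic probes and negative controls. Binding intensity is the highest Masliner-normalised natural-log median intensity across replicate spots of either probe orientation, measured with Alexa488 anti-GST antibody and a 488 nm scan.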
Take “TGGAGGATAGTTCACAGTACCCAGTAACTCTACGGA [XGTACX_site4930]”: the “gcPBM binding intensity (ln)” value was determined as 9.43.
For the sequence “AAAGTATAAATAAATACACACATATATATATATATA [CACACA_site2892]”, the “gcPBM binding intensity (ln)” value was found to be 9.84.
As for “TACATTCGGAGTAAAAAAAAATTTATACAATTACTT [XGTACX_negctrl_site29]”, the figure is 9.44.
As for “TATATATTATATATATGTACATAATTCCATGTTTAG [XGTACX_site3943]”, the figure is 9.6; as for “AACTCTTAAAAATAAACATGCAAATATTTACCTTCT [TGCATGCA_site986]”, 9.57.
Under “CTTGAAAGATTTTATTGTACTCATAAGATACATTTC [XGTACX_site3178]” stands 9.35; under “TCATACAATATTAAATGTACATATATATATATATAT [XGTACX_site8828]”, 9.67.
For the sequence “ATATTAAAGCCTTTTTGTACATATAAATAAACATAG [XGTACX_site4667]”, the “gcPBM binding intensity (ln)” value amounted to 9.55.
Under “TTGAAAATAATATGAAGTACATTATTTTTTTTTAAT [XGTACX_site4499]” stands 9.43; under “AAAAATATTTAAAATACACACATATATATAATATAT [CACACA_site2006]”, 9.9.
As for “AAAACTTTCCATGTTTGTACATAAAATATAATAATT [XGTACX_site2716]”, the figure is 9.61; as for “TTTTTTTTCTTTTTTTTTTTTTCAAAAGCTTATAAT [CACACA_negctrl_site1526]”, 9.32.
As for “TGTATAATCATATATACACACACATATATATATATA [CACACA_site8674]”, the figure is 10.1.
Regarding “TTATATAAAAAAAAATGTACATATAATTGGTAAATT [XGTACX_site5180]”, the “gcPBM binding intensity (ln)” value is 9.66.
As for “GTGTATTTGGTGCGCACACACATGCAAAAAGAAATA [CACACA_site4768]”, the figure is 10.1.
As for “CACAAAAATGTAATCACACATATATATATATATATA [CACACA_site5818]”, the figure is 9.52; as for “AAAAAATGAAAATATTCCAAAATAGAGGGAAATGTA [GTGCAC_negctrl_site572]”, 9.69.
Under “TATGTGATAACACGCACACAAATGTATTTAATTTAT [CACACA_site5435]” stands 9.87.
In the case of “ATTCTAATAATATATACACACACATATATATTTATA [CACACA_site8629]”, the “gcPBM binding intensity (ln)” value is 9.99.
Consider “TTATATTTATATATTTGTACGTATGTATATAATTCA [XGTACX_site2993]”, for which the “gcPBM binding intensity (ln)” value turned out to be 9.55.
Under “CTTTTTTAAAATATTTAACACACAATTTTAATGCAT [CACACA_site9303]” stands 9.66; under “AAAATTAGGAGACATGCATGTAACGATAAATATAAC [TGCATGCA_site148]”, 10.3; under “TAATTTTTATTCAAGAGTACACAAAAGATAACTAAA [XGTACX_site4060]”, 9.16.
Under “TAAAAAAAATCATTCACACATATATGAAAAAAAAAA [CACACA_site5546]” stands 9.64; under “TAGATACCTATAGAAACATGCAATTGAATATATTTC [TGCATGCA_site402]”, 9.61.
As for “TTCTTACACGTTTGCACACTAAAATATATATATATA [CACACA_site434]”, the figure is 9.91.
Consider “GTTACATACATATACACACACATATATATATATATA [CACACA_site901]”, for which the “gcPBM binding intensity (ln)” value was determined as 10.2.
Under “TAAATAATTCTTTTAGTACACACGAATAAGCAGATA [CACACA_site305]” stands 9.73.
As for “AAATATTACCATGTGAAAATTTTACTGCAACATGAA [TGCATGCA_negctrl_site609]”, the figure is 9.68; as for “TAAAAATTTACATGTTGTACATATAATTATATAATC [XGTACX_site4577]”, 9.53; as for “AGGCTGCCATATTATACACACATTTTTAAAAAAATT [CACACA_site3843]”, 9.59.
Under “AAAGGATGTAATATAAACATATATATGTATATATAT [TGCATGCA_negctrl_site347]” stands 9.79.
Regarding “ATAAAATGAAATATATATGTGTATGCTTAACTTGTT [CACACA_negctrl_site431]”, the “gcPBM binding intensity (ln)” value worked out at 9.82.
Under “TAATTTTTTTTAATAACACACATATATATATATATA [CACACA_site813]” stands 9.66.
In the case of “ATTGTTTTATATAGAACACACATAAAAATATATATG [CACACA_site1193]”, the “gcPBM binding intensity (ln)” value is 9.76.
As for “TAATATTCCTTTTTAACACACATATGAACAAATAAA [CACACA_site153]”, the figure is 9.42; as for “ATATTAAACAGACACACACACATATATTTATTTATA [CACACA_site7564]”, 10.4; as for “TATAGCATATCTCACACACACATAATGAATATTATA [CACACA_site5877]”, 10.2.
Under “AAAATGAACTCACGAGCACACACACCCATATATATA [CACACA_site8247]” stands 10.3.
Under “TGTATTATATAAAATTGTACATGCGAATTGTATAAC [XGTACX_site902]” stands 9.61; under “TATAGCTATGTATTCACACATAATATAAACTTTAAT [CACACA_site5889]”, 9.63.
For the sequence “TAAAACAAAACAAAAATAGGATTATATTCCTTTTTT [CACACA_negctrl_site1003]”, the “gcPBM binding intensity (ln)” value came out at 9.45.
Under “ATAATTTCAATATTTAATATCATATATATATATTTT [GTGCAC_negctrl_site713]” stands 9.63.
As to “ATATATATATATATATGTACATATGTGTATATAACT [XGTACX_site495]”, the “gcPBM binding intensity (ln)” value amounted to 9.98.
As for “AAATAAAAAAATACCCAACACCATGCCAAATGTGAA [CACACA_negctrl_site411]”, the figure is 10.2; as for “ACAAAATGTAAATAAACACACATATTTATATTTATA [CACACA_site6719]”, 9.94; as for “TTGGTGGATAAATTTACACACAATAATTTTCGTTCA [CACACA_site467]”, 9.68.
Under “AATAAAATATTATGTGCATGCTGTTTTATTTATTAA [TGCATGCA_site102]” stands 9.71.
As for AATTCACCAAAAAAAGTGCATATTCAATATATATTA, the figure is 9.5.
For the sequence “TAGTTAGGCCCTACATGTACATAATATATATTACTT [XGTACX_site1137]”, the “gcPBM binding intensity (ln)” value is 9.93.
Under “ATCAACATTACATTTAGTACACATATATTTCTATGT [XGTACX_site4436]” stands 9.94; under “TATATAAGTATAAAATGTACATAAAATTTTATGTTA [XGTACX_site2613]”, 9.7.
As for “CTAATTAATATTTGTACACACATATTTAACCTACTA [CACACA_site3191]”, the figure is 9.91; as for “TAAAATTCGAAAAATTGTACTATTTATATATCTGTA [XGTACX_site6478]”, 9.47; as for “AAGACACAAAAACACACACACATACATACATACATA [CACACA_site454]”, 10.3.
Consider “TATGTTGATGATGATAGTACATATGAGTTCAAAAAA [XGTACX_site7712]”, for which the “gcPBM binding intensity (ln)” value was determined as 9.64.
In the case of “TATATTTGGAAAACATGTACATATAACAATATGTAA [XGTACX_site324]”, the “gcPBM binding intensity (ln)” value was found to be 9.6.
As for “AATAAAAAAGGAAACAAATTAATATATATATATATA [CACACA_negctrl_site467]”, the figure is 9.52; as for “AAAAAAAGAAATAATAAAAAATATATATATATATAT [GTGCAC_negctrl_site702]”, 9.4.
Under “CGTACATAATTTTAATCACACACAAACAAACACATA [CACACA_site7947]” stands 10.2.
As for “TGTTTTGTTGTGTATTGTACTAATATAAATATATAA [XGTACX_site1852]”, the figure is 9.68; as for “TAAAAAAACGCACTCGTACACACATATTTTCTTTCT [CACACA_site3090]”, 9.85; as for “TTTTATGATTGACACACACACAAAAAAAAAAAAAAA [CACACA_site7860]”, 9.95.
Consider “TTTGAAATATATTTAGTGCATATATATTGATTATAA [GTGCAC_site9604]”, for which the “gcPBM binding intensity (ln)” value amounted to 9.36.
As for “ATACATATAGGATGCACACATAATTCAAATACAATA [CACACA_site651]”, the figure is 10.1; as for “ATGAATATAATGAAGTGTACATAAAAATAATAAATA [XGTACX_site2481]”, 9.9; as for “CAATTTTGCCCTTCCTGTACATATATTGAAAAATAT [XGTACX_site6388]”, 9.36.
In the case of “ATCTAGTACATACATACACACAACAATGTTATGAGA [CACACA_site3989]”, the “gcPBM binding intensity (ln)” value came to 9.81.
Under “AATTATAGCTGTATCTGTACGCATTTATTTATAGAC [XGTACX_site5959]” stands 9.65; under “GAAAGGGCAGGAACTATTAATACACTGATCGATAAG [CACACA_negctrl_site1458]”, 9.53.
As for “TTAAATAATATTAGCCGTACAATTTAAAGATAATAA [XGTACX_site8503]”, the figure is 9.41.
Under “TTTAATACTTTATATGCATGCAGAGAAAAATGCTTG [TGCATGCA_site286]” stands 9.35; under “AAAAAAAAGTATGATTCTAAATTTATGTATATATAA [GTGCAC_negctrl_site669]”, 9.48; under “TAAAAATATAGGTATACACACATATAAATATAAATA [CACACA_site7785]”, 9.94.
For the sequence “CTTATACATAAATTTTGTACACACAAAAAAAAAAAA [XGTACX_site2665]”, the “gcPBM binding intensity (ln)” value was 9.7.
Consider “GATTTTAAAATAATTACACACTTGATTATGTCCAAA [CACACA_site3491]”, for which the “gcPBM binding intensity (ln)” value was 9.67.
Under “ATAAATATAAATATATGTACATATATATATATATAT [XGTACX_site7433]” stands 9.8; under “TAAATATTTATAAACACACAAATATTTATATTTATA [CACACA_site6166]”, 9.58; under “AAATAGAGAAATACAAGTACATATCAAACCAATCTA [XGTACX_site2756]”, 9.73.
Consider “TTTATTTATTAATACACACACACACGCCCACAAAAT [CACACA_site6253]”, for which the “gcPBM binding intensity (ln)” value stood at 10.5.
Under “AGGGACATATATATCACACACAAAAATTAGTCCCTT [CACACA_site2778]” stands 10.1; under “AAATAAATTAAAATAAATTAAATTAAATTAGCATTA [GTGCAC_negctrl_site531]”, 9.52.
Under “TGTATGTTATGTATATGTACATATCTTTGTATTTAT [XGTACX_site6920]” stands 10.2; under “TTTTAAATAATTCGTAATTATAATTATGGAAAAAAG [CACACA_negctrl_site152]”, 9.52; under “TATTTATAAGTTTACGCATGCATATAATTATTAATA [TGCATGCA_site311]”, 9.47.
As to “TTTTTTTTTTTTTTTGTGCACAATTATTTCAATTTT [GTGCAC_site9884]”, the “gcPBM binding intensity (ln)” value was 9.66.
As for “TAATATTTATAATAGTGTACACAATTATAAACTGAA [XGTACX_site8426]”, the figure is 9.58; as for TTTATTTTTTACCAAGTGCAATATATTATAATAATA, 9.11.

For the origin of these results see the supplement of paper PMC11417369.
